{"source": "paper PMC5011643", "note": "These are yes or no findings as the source states them, for the method shown. Binding seen in cells or lysates may run through a third protein. Some binding calls cover weakened binding; strength is not graded here.", "data": [{"molecular_target": "phosphorylated Smad2 (human (endogenous in IMR32 and BE(2)-C)), Q15796", "assay": "co-IP; IMR32 and BE(2)-C cells transfected with Smad4, D351H or R361H; western blot for p-Smad1 and p-Smad2", "conditions": "remark: other sources report otherwise", "values": [{"binder": "Smad4, transfected, Q13485 1-552 (protein, here or on the partner: phosphorylated (sites not given)) MDNMSITNTPTSNDACLSIVHSLMCHRQGGESETFAKRAIESLVKKLKEKKDELDSLITAITTNGAHPSKCVTIQRTLDGRLQVAGRKGFPHVIYARLWRWPDLHKNELKHVKYCQYAFDLKCDSVCVNPYHYERVVSPGIDLSGLTLQSNAPSSMMVKDEYVHDFEGQPSLSTEGHSIQTIQHPPSNRASTETYSTPALLAPSESNATSTANFPNIPVASTSQPASILGGSHSEGLLQIASGPQPGQQQNGFTGQPATYHHNSTTTWTGSRTAPYTPNLPHHQNGHLQHHPPMPPHPGHYWPVHNELAFQPPISNHPAPEYWCSIAYFEMDVQVGETFKVPSSCPIVTVDGYVDPSGGDRFCLGQLSNVHRTEAIERARLHIGKGVQLECKGEGDVWVRCLSDHAVFVQSYYLDREAGRAPGDAVHKIYPSAYIKVFDLRQCHRQMQQQAATAQAAAAAQAAAVAGNIPGPGSVGGIAPAISLSAAAGIGVDDLRRLCILRMSFVKGWGPDYPRQSIKETPCWIEIHLHRALQLLDEVLHTMPIADPQPLD", "binding": "binds"}, {"binder": "Smad4 D351H, Q13485 1-552 (protein, here or on the partner: phosphorylated (sites not given)) MDNMSITNTPTSNDACLSIVHSLMCHRQGGESETFAKRAIESLVKKLKEKKDELDSLITAITTNGAHPSKCVTIQRTLDGRLQVAGRKGFPHVIYARLWRWPDLHKNELKHVKYCQYAFDLKCDSVCVNPYHYERVVSPGIDLSGLTLQSNAPSSMMVKDEYVHDFEGQPSLSTEGHSIQTIQHPPSNRASTETYSTPALLAPSESNATSTANFPNIPVASTSQPASILGGSHSEGLLQIASGPQPGQQQNGFTGQPATYHHNSTTTWTGSRTAPYTPNLPHHQNGHLQHHPPMPPHPGHYWPVHNELAFQPPISNHPAPEYWCSIAYFEMDVQVGETFKVPSSCPIVTVHGYVDPSGGDRFCLGQLSNVHRTEAIERARLHIGKGVQLECKGEGDVWVRCLSDHAVFVQSYYLDREAGRAPGDAVHKIYPSAYIKVFDLRQCHRQMQQQAATAQAAAAAQAAAVAGNIPGPGSVGGIAPAISLSAAAGIGVDDLRRLCILRMSFVKGWGPDYPRQSIKETPCWIEIHLHRALQLLDEVLHTMPIADPQPLD", "binding": "no binding"}, {"binder": "Smad4 R361H, Q13485 1-552 (protein, here or on the partner: phosphorylated (sites not given)) MDNMSITNTPTSNDACLSIVHSLMCHRQGGESETFAKRAIESLVKKLKEKKDELDSLITAITTNGAHPSKCVTIQRTLDGRLQVAGRKGFPHVIYARLWRWPDLHKNELKHVKYCQYAFDLKCDSVCVNPYHYERVVSPGIDLSGLTLQSNAPSSMMVKDEYVHDFEGQPSLSTEGHSIQTIQHPPSNRASTETYSTPALLAPSESNATSTANFPNIPVASTSQPASILGGSHSEGLLQIASGPQPGQQQNGFTGQPATYHHNSTTTWTGSRTAPYTPNLPHHQNGHLQHHPPMPPHPGHYWPVHNELAFQPPISNHPAPEYWCSIAYFEMDVQVGETFKVPSSCPIVTVDGYVDPSGGDHFCLGQLSNVHRTEAIERARLHIGKGVQLECKGEGDVWVRCLSDHAVFVQSYYLDREAGRAPGDAVHKIYPSAYIKVFDLRQCHRQMQQQAATAQAAAAAQAAAVAGNIPGPGSVGGIAPAISLSAAAGIGVDDLRRLCILRMSFVKGWGPDYPRQSIKETPCWIEIHLHRALQLLDEVLHTMPIADPQPLD", "binding": "no binding"}]}]}
